Laboratory results reported in the supplement of paper PMC10126150.
Sequences with one replicate were seen in a single cluster, so their values are uncertain.

Tested on: ATP
Assay: switch fluorescence ratio, 500 uM ATP over buffer (Cy3 cluster intensity, sum of 5 cycles each) (fold (ratio)); higher = stronger signal-on switching upon ATP binding; sequences stand for … in TCGTCGGCAGCGTCAGATGTGTATAAGAGACAGTTTTTTTTTTTTTTTTTTTTTTTTT…TC
Settings: aptamer strand: ATP DNA aptamer (quencher-CACCTGGGGGAGTATTGCGGAGGAAGG + anchor), 100 nM annealed; ATP concentration: 500 uM; one replicate
Method in brief: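 Cy3-labelled switching-strand clusters on a modified Illumina MiSeq flow-cell were annealed to 100 nM quencher-labelled ATP aptamer and imaged first in selection buffer, then after 15 min with 500 uM ATP at 22 °C. NaOH stripping and re-annealing separated each of five buffer/ATP cycles, and clusters outside 100-1000 RFU were excluded. The fluorescence ratio sums target-cycle Cy3 intensity over buffer-cycle Cy3 intensity per cluster and averages it per switch-domain sequence.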
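Note: ATP exposure 15 min at 22 °C before imaging.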

| Sequence | switch fluorescence ratio |
| --- | --- |
| ACATGTTGTG | 0.992 |
| AAAAATCTAG | 0.995 |
| AAGTGCGCCA | 0.977 |
| AGATGCATTT | 0.953 |
| GAGGTGATT | 0.965 |
| TTCCAAGATT | 1.55 |
| ACTTTAAAGG | 1.4 |
| TGTACGTAGC | 1.15 |
| CCTAATCAGA | 0.953 |
| AAACGGCAGT | 1.03 |
| AATACGGTAC | 1.72 |
| GCCGGTTCGC | 1.06 |
| CGGAAAGTG | 0.99 |
| AGTCATACTT | 1.02 |
| AGTATTCAAG | 0.961 |
| ATAACTCATT | 1.04 |
| AGCATGGGA | 1.02 |
| AGAACTTTA | 1.04 |
| AGCAGGGCAG | 1 |
| TATCAGTGTT | 1.01 |
| AGGATTTTCA | 0.977 |
| AAGAGACTCG | 1.08 |
| TTTTGCCACG | 0.997 |
| TTGTACACTG | 1.01 |
| ATTGGAAAAA | 1.06 |
| TCCCCAGGCA | 1.02 |

| Sequence | switch fluorescence ratio |
| --- | --- |
| TATCAAGAT | 1.03 |
| TTAGGCGGCG | 0.954 |
| TAGGTGTCTG | 0.957 |
| AGTGGGAGGC | 1.05 |
| AAATGGTATT | 0.983 |
| TATCGGACTT | 1.04 |
| CATCGGGGCT | 1 |
| TATGTATACG | 1 |
| TATCAATACA | 1.18 |
| CTATTCATAG | 1.03 |
| GGGTATTAT | 0.994 |
| TTCCGTGGCT | 1.03 |
| GGGATTATGC | 0.933 |
| GGTCCTAATC | 1 |
| GTTTTTAGTA | 1 |
| TGTCGAGGGT | 0.97 |
| GGGTGAGATG | 1.03 |
| TGCACTGGCA | 1.07 |
| CTCAGGAGCG | 0.993 |
| AGTGCTGTCA | 0.976 |
| TGTACAAGGC | 1.06 |
| TCGTATCGGT | 0.976 |
| AGTTTACGG | 1.01 |
| AACGCAGTGG | 0.983 |
| TCTTGGGCCA | 0.991 |
| ATGTTTAGCG | 0.935 |

| Sequence | switch fluorescence ratio |
| --- | --- |
| GCGTCCAGC | 0.951 |
| TCAACTTTAC | 1.27 |
| TAAAGTACGA | 1.21 |
| AATCGCCTGC | 0.989 |
| AGCTGAGTGC | 0.986 |
| GAGGAAGGGC | 0.992 |
| GGGAGTGCTA | 0.988 |
| GGGAGTCTAC | 0.956 |
| GGGAGACTTG | 0.99 |
| TCTTAAACCT | 2.59 |
| ATAGGGTGT | 1.02 |
| CTGCGGTTTC | 1.04 |
| GACCGATTAC | 2.06 |
| CATTTGGCGA | 1.03 |
| GGTGTGCGAG | 0.986 |
| TGAATCCTGC | 1.04 |
| CGTCGCTGTT | 0.993 |
| TTTGAGACC | 0.979 |
| GACGACGTTC | 1.85 |
| GGCGATAAAA | 1 |
| CTCATAAAA | 1.01 |
| AAGCCGGAAT | 1.07 |
| CGGTTTGCCC | 0.952 |
| GGAAAGCAGG | 1 |
| TTAGGCTATC | 0.983 |
| GTTCATTTCG | 0.985 |

| Sequence | switch fluorescence ratio |
| --- | --- |
| CCGTCTATAT | 3.07 |
| TAGTGTCCGG | 0.932 |
| GTTTTTTAG | 1.02 |
| CGGTGCACCC | 0.985 |
| TCCACAGGAG | 1.49 |
| CTCGTTTTA | 0.966 |
| CAGATAACAC | 1.06 |
| GGGTGCCCGA | 1.03 |
| TTCGAATTTG | 1.03 |
| AGGCCTGGGA | 0.971 |
| GGCAGAGTAA | 0.987 |
| GCTCGTGGGT | 0.994 |
| ACGTAGCCGA | 0.978 |
| CTCCTTAGGT | 1.02 |
| CGTTTTCGCG | 1 |
| GACAGACGGA | 1.33 |
| AAAAGATATG | 1.01 |
| CCCATGGTCG | 1.17 |
| TGATTTTCAA | 1.07 |
| CTGCGTTTCA | 1.04 |
| AGGGAGAGGC | 0.932 |
| GGTGCCGGCG | 1.05 |
| AAACCATTAA | 1.04 |
| ACTCAATTG | 1.01 |
| AAAGGTGAGC | 1.02 |
| GAAAAAATAC | 1.64 |

| Sequence | switch fluorescence ratio |
| --- | --- |
| CACCTTCGGC | 1.12 |
| CTCCCTAGCA | 1.6 |
| TCTCGAGGCC | 1 |
| TGGGCCGCAT | 1.13 |
| TGTTGTTGTG | 1.01 |
| TTTCTAAAGA | 1.05 |
| GTCGATTAA | 0.954 |
| AAATACACCA | 1.12 |
| GTGTGTACGA | 1.03 |
| AAGGGGATGC | 0.989 |
| ATTAGGTCGC | 1.01 |
| CTATGGGCTC | 0.984 |
| TATGCTACAA | 1 |
| AACCGCCTGA | 1.27 |
| GCAGTGAGCA | 0.97 |
| CAATTCGTTT | 0.934 |
| CGCTGGTAGT | 1 |
| GAGTGAAAG | 1.04 |
| TTTGCCCGTT | 0.978 |
| GACAGAAATG | 0.979 |
| CTCACGTCTC | 1.11 |
| TAATTCGAAT | 0.982 |
| CTGATTTTGT | 1 |
| GCGTTCCTGT | 1.02 |
| AGCGACTCTT | 1.07 |
| ACTAGTCATC | 1.04 |

| Sequence | switch fluorescence ratio |
| --- | --- |
| TCTTTAGTTC | 1.15 |
| AGGTGGTAG | 0.974 |
| ATATTCATTG | 0.96 |
| AAAGATCCAA | 1.01 |
| CCAGTTAATC | 1.05 |
| TTAGCCAGG | 1.12 |
| AACAGGCTGA | 0.975 |
| GGGGAAGCGT | 0.976 |
| TTGTTGTC | 1.05 |
| CTTGCAGCGA | 1.27 |
| GAGGCTTATG | 1.02 |
| TACTAGGCTC | 1.02 |
| GGTACGTTCG | 0.992 |
| GATTATGTTG | 0.911 |
| CATCAAGTT | 1.04 |
| ACCGGGTGCG | 1.05 |
| TCGGTATAAG | 0.98 |
| TTGGCTTCTA | 1.04 |
| ATAGTTGCAA | 0.999 |
| CTTTGATTAA | 1.04 |
| CTTCTCTGC | 1.23 |
| TATGGGTCAC | 1 |
| TATGTCAATC | 0.998 |
| TTGGCAGCTG | 0.999 |
| TAGCTCACTA | 0.988 |
| GATACGGCAG | 1 |

| Sequence | switch fluorescence ratio |
| --- | --- |
| GAAAAATGGG | 1.03 |
| GTAGTTGTCA | 1.01 |
| TCATGGATGT | 1.02 |
| GGGAAAATTG | 1.04 |
| GGAGCCAAAC | 1.88 |
| TTCATTGGGT | 0.999 |
| TTCCCGAGCT | 1.07 |
| GCTTGACGTG | 0.975 |
| GGGTATAGA | 1.01 |
| TATCTATGTC | 0.96 |
| ACGGCAATTT | 1.31 |
| CGAGACTCAC | 1.07 |
| GCCGCTCGGA | 1.05 |
| AAGGTAGCG | 1.02 |
| TGAGTAGTCT | 1.1 |
| TCCTGAAGCT | 1.05 |
| CATGGCAGAC | 2.1 |
| CTATTGGACA | 1.08 |
| CTGGCGGCCA | 1.03 |
| TTTGCGGGGC | 1.05 |
| TCCTTTATAT | 0.994 |
| TAAGTGATTA | 0.975 |
| TGCCTCAGGA | 1.08 |
| CAATAGGTAT | 0.995 |
| ATTGTCGGCC | 0.982 |
| TTCACAGGTA | 1.05 |

| Sequence | switch fluorescence ratio |
| --- | --- |
| AACCCGGGTA | 0.961 |
| AGCCAATTAG | 1.03 |
| TAATTCCACT | 1.01 |
| GGACATTGGC | 1 |
| TTAAAAGCCC | 0.967 |
| CACGGAACAT | 1.02 |
| GAGTGGTTAT | 1.01 |
| TCCTTTGCAT | 3.11 |
| TACTAGGATG | 0.995 |
| CGGCCGGTTA | 1.04 |
| ATAGTGGCGT | 0.965 |
| AGATTAGTG | 0.984 |
| CGAACGTAGG | 1.01 |
| CGTTTGCGTC | 1.04 |
| TGGGAACTAT | 1.04 |
| CACTGCTGAC | 2.47 |
| TACGAGTGTC | 1.01 |
| GGAAAATC | 1.01 |
| TAGACGGACT | 1.17 |
